In the test the target is T1, rhCD25-Fc (human, UniProt P01589 22-213).
T1 construct: Used as SPR analyte at 1 to 16 nM; also called IL-2Rα-Fc; not shown: Fc part of the reagent
T1 sequence (looked up): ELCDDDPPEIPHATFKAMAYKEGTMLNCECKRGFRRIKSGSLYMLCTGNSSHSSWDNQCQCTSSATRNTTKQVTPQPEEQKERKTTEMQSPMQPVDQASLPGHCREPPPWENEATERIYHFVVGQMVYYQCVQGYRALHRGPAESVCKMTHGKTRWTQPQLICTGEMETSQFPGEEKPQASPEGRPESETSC
Nature of the test: SPR, 329141 immobilised, rhCD25-Fc as analyte. Background: SPR reads the build-up and loss of mass on a sensor chip optically.

From patent US20210221864A1 (CITY OF HOPE, published 2021) come the findings set out here.

B1: 329141 construct (IL2-L1-CH2-L2-IL-2Rα-LH masked cytokine receptor binding protein) (other)
chain: [about 150 residues cut from this listing]GGVPLSLYSGNGGPSVFLFPPKPKDTLMISRTPEVTCVVVDVSHEDPEVKFNWYVDGVEVHNAKTKPREEQYNSTYRVVSVLTVLHQDWLNGKEYKCKVSNKALPAPIEKTISKAKGQPGASASGGGMLSLELCDDDPPEIPHATFKAMAYKEGTMLNCECKRGFRRIKSGSLYMLCTGSSSHSSWDNQCQCTSSATRSTTKQVTPQPEEQKERKTTEMQSPMQPVDQASLPGHCREPPPWENEATERIYHFVVGQMVYYQCVQGYRALHRGPAESVCKMTHGKTRWTQPQLICTGEASGGGGHHHHHH
notes: Tested uncleaved (masked) and immobilised on the SPR chip; also called IL2-CH2-IL2Ra construct
In the case of B1, the binding result is reported as “no binding”.
